In PubChem BioAssay AID624417 (National Center for Advancing Translational Sciences (NCATS), 2012):
The whole screen tested about 410,000 compounds, of which about 6,400 (1.6%) were called active. The inconclusive results got no clear call from the source; some entries with a clear call stand among them for comparison. Calls follow the shape of the dose curve; as a rule, active = well fitted inhibition curve with a large enough effect; inconclusive = small, poorly fitted or top-dose-only effect; inactive = no such curve, though single readings can be large or run the other way. No potency is given beside an inconclusive call; the fits are too rough.

molecular target: Glucagon-like peptide 1 receptor (Homo sapiens) (UniProt P43220); experiment: qHTS of GLP-1 Receptor Inverse Agonists (Inhibition Mode); details: HEK293 GLP-1R CRE-luciferase, luminescence, 24 h, GLP-1R form is constitutively active; activity change, negative = inhibition: at 38.3 µM (top of the series) unless noted; also: nearly all actives have a fitted effect of over 55% in size
Procedure, shortened: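 Using stably transfected HEK293 (constitutively active GLP-1R, cAMP-luciferase reporter), compounds were incubated 24 hr and luciferase measured by luminescence.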
% is scaled to controls: 0 for no effect and ±100 for the full control effect; potency is read from the fitted curve at half-maximal effect; tags tell the direction and shape of the fitted curve.

UniProt P43220, sequence (P43220 whole entry, looked up): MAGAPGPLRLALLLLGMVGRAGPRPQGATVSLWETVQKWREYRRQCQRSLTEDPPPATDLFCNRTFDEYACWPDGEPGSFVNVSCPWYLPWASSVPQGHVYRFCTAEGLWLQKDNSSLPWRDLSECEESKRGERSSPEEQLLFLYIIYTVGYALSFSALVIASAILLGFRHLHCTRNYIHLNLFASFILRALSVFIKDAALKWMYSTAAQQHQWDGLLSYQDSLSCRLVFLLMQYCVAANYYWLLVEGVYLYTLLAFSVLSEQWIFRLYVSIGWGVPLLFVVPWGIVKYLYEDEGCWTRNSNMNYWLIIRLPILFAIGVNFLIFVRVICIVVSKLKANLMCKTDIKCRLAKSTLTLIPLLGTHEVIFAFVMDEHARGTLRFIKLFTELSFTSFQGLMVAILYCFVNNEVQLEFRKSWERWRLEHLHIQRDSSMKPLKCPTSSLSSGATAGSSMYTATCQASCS

| SMILES | Potency | activity change, negative = inhibition |
| --- | --- | --- |
| O=C(/C=C/c1cccc(Cl)c1)N1CCC(Cc2ccccc2)CC1 | inconclusive [inhibitor, single point] | – |
| Cc1cc(Cl)cc(Br)c1OCCNCC(C)O (stereo not drawn) | inconclusive [inhibitor, partial curve, poor fit] | – |
| CCC(C)NCCOCCOc1ccc(Cl)cc1Br (stereo not drawn) | inconclusive [inhibitor, full curve, poor fit] | – |
| CC(C)N1CCN(Cc2ccc3c(c2)Cc2ccccc2-3)CC1CCO (stereo not drawn) | inconclusive [inhibitor, partial curve, poor fit] | – |
| COc1ccc(/C=N/NC(=O)c2ccc(O)cc2)cc1CN1CCCc2ccccc21 | inconclusive [inhibitor, single point] | – |
| O=C(NC1CCCc2ccccc21)c1ccccn1 (stereo not drawn) | inconclusive [inhibitor, partial curve, poor fit] | – |
| O=C(COc1nsnc1N1CCOCC1)Nc1ccc(Cl)cc1 | inconclusive [inhibitor, partial curve] | – |
| CCOc1ccccc1/C=N/n1c(C2CCCCC2)n[nH]c1=S | inconclusive [inhibitor, single point] | – |
| Cc1ccc(S(=O)(=O)/N=C2/NC(=O)/C(=C/c3ccc(Br)o3)S2)cc1 | – | inactive: 27.5% |
| COc1ccc(C(C)=O)cc1COc1cccnc1[N+](=O)[O-] | inconclusive [inhibitor, partial curve, poor fit] | – |
| CC1CCCCC1NC(=S)NC(=O)c1ccccc1Cl (stereo not drawn) | inconclusive [inhibitor, partial curve, poor fit] | – |
| O=C(COC(=O)c1cc2ccccc2cc1O)NCc1ccccc1 | – | inactive: -1.11% |
| Cc1ccc(C(=O)Nc2ncc(Cc3ccc(F)cc3)s2)o1 | inconclusive [inhibitor, full curve, poor fit] | – |
| COc1cccc(NC(=O)C2(C)CCN2Cc2ccc(SC)cc2)c1 (stereo not drawn) | inconclusive [inhibitor, single point] | – |
| CC(C)C(=O)NCCc1c[nH]c2ccccc12 | – | inactive: 29.4% |
| FC(F)(F)c1ccccc1-n1c(-c2cnccn2)n[nH]c1=S | inconclusive [inhibitor, partial curve, poor fit] | – |
| COc1ccc(S(=O)(=O)N(CCc2ccccc2)CC(=O)NCc2ccccc2)cc1 | inconclusive [inhibitor, single point] | – |
| COC(CCN(C)C)(c1ccccc1)c1ccccc1 | inconclusive [inhibitor, partial curve, poor fit] | – |
